Some of the results follow. Cleavage of a single-stranded DNA pool by Rep nickase domains was read by sequencing for 1 h at 37 °C with 3 µM enzyme; only the middle of the 90-letter strands is printed. Uncut reads are compared with the no-enzyme pool on a log2 scale; strong cutting gives strongly negative numbers. There is no active / inactive call. Counts are relative to all reads; where an enzyme cuts many sequences, the uncut ones exceed 0.
Tests used:
Experiment in all cases: uncleaved DNA left, log2 of reads against the no-enzyme library (log2 ratio); higher = less cleavage (more negative = more Rep cleavage of the k-mer); sequences stand for … in CTCGTCCG…ACCGGAGA
[1] = tested on: T1, Rep nickase domain of Muscovy duck circovirus
T1 sequence (residues 1-111, tag not shown): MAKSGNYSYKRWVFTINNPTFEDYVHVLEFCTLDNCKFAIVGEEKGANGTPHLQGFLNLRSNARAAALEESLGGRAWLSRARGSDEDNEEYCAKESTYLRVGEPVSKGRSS
Procedure: (§1)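 A pool of 90-nt single-stranded DNAs with seven random bases just before the constant AC of the nick site (name = the seven bases) was cut by 3 µM recombinant His6-SUMO-tagged Rep nickase domain (300 nM DNA, 50 mM HEPES pH 8.0, 50 mM NaCl, 1 mM MnCl2, 1 h, 37 °C, three replicates). Uncut DNA was amplified and sequenced.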

[2] = tested on: T2, Rep nickase domain of banana bunchy top virus
T2 sequence (residues 1-94, tag not shown): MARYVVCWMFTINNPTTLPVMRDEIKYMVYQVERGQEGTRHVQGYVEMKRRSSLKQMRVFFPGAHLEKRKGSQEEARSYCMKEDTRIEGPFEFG
Procedure: as §1

[3] = tested on: T3, Rep nickase domain of cabbage leaf curl virus
T3 sequence (residues 1-116, tag not shown): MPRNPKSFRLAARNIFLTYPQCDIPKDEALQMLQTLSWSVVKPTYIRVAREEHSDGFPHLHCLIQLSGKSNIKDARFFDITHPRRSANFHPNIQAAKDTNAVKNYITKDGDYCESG
Procedure: as §1

[4] = tested on: T4, Rep nickase domain of chickpea chlorotic dwarf virus
T4 sequence (residues 1-124, tag not shown): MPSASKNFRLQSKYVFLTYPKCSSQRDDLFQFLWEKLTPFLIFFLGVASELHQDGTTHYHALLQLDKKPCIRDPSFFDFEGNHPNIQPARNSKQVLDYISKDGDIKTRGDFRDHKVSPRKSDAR
Procedure: as §1

[5] = tested on: T5, Rep nickase domain of faba bean necrotic yellows virus
T5 sequence (residues 1-98, tag not shown): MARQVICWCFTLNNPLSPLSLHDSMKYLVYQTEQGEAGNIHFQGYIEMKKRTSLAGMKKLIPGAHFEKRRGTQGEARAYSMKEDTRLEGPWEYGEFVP
Procedure: as §1

[6] = tested on: T6, Rep nickase domain of maize striate mosaic virus
T6 sequence (residues 1-117, tag not shown): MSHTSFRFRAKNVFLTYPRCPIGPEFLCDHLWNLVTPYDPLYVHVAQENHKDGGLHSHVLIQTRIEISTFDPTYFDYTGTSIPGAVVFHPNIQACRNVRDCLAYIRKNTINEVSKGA
Procedure: as §1

[7] = tested on: T7, Rep nickase domain of porcine circovirus 2
T7 sequence (residues 2-116, tag not shown): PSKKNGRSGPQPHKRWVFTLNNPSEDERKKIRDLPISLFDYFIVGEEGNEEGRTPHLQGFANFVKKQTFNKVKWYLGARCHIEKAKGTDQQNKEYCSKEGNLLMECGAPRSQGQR
Procedure: as §1

[8] = tested on: T8, Rep nickase domain of tomato golden mosaic virus
T8 sequence (residues 1-124, tag not shown): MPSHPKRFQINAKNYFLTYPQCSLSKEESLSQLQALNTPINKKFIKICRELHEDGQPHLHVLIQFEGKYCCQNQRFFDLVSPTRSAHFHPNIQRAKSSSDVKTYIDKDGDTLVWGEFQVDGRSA
Procedure: as §1

[9] = tested on: T9, Rep nickase domain of tomato yellow leaf curl virus
T9 sequence (residues 1-136, tag not shown): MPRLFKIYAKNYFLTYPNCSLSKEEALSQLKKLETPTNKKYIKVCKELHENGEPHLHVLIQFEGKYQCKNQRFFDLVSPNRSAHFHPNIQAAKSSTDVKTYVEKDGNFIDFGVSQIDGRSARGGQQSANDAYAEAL
Procedure: as §1

[10] = tested on: T10, Rep nickase domain of wheat dwarf virus
T10 sequence (residues 1-137, tag not shown): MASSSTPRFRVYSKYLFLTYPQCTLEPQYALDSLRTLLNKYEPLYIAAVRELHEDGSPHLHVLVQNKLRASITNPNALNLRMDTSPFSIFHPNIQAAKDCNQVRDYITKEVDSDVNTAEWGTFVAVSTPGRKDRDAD
Procedure: as §1

Sequence	uncleaved DNA left (log2) [1]	uncleaved DNA left (log2) [2]	uncleaved DNA left (log2) [3]	uncleaved DNA left (log2) [4]	uncleaved DNA left (log2) [5]	uncleaved DNA left (log2) [6]	uncleaved DNA left (log2) [7]	uncleaved DNA left (log2) [8]	uncleaved DNA left (log2) [9]	uncleaved DNA left (log2) [10]
AATTAAT	-3.45	-3.89	-1.05	-2.57	-0.603	-0.245	-3.74	-0.296	0.0688	-0.288
TGCAGCC	-0.0618	-0.15	-0.159	-0.183	-0.0815	-0.774	0.0701	-0.136	-0.138	-0.186
ATCACCC	-0.0716	0.0272	-0.0958	0.0286	-0.0319	-0.0956	-0.19	-0.0242	-0.122	-0.106
CTACGCA	-0.15	-0.055	-0.322	-0.715	0.0314	-0.824	0.00352	-0.133	-0.0621	0.0149
GTTGACA	0.182	0.113	0.373	1.14	0.0196	1.86	0.152	0.0129	0.164	0.199
GTACTGG	0.0953	0.113	0.444	1.01	0.00773	1.38	0.0798	0.197	0.0329	0.102
TGGAGAC	0.0669	0.0655	0.804	1.75	-0.00392	1.91	0.172	0.0634	0.0629	0.0555
TAGAATC	0.0791	0.00861	0.07	-0.513	-0.11	-0.317	-0.603	0.00137	0.0605	0.0713
ATGGTCT	-0.00944	-0.0678	-0.0373	-0.742	-0.0715	0.416	-0.115	-0.0178	-0.138	-0.087
TGTTTTC	-0.0222	-0.128	0.372	0.601	-0.0637	1.03	-0.00138	-0.0534	0.0443	-0.00626
ATTTCAG	-0.0325	-0.0249	-0.864	-0.797	0.0375	-1.16	0.138	-0.0959	0.0849	-0.0542
CAGTCTT	-3.03	-3.04	-0.955	-2.69	-3.11	-0.304	-4.31	-0.46	0.0777	-0.245
GAAAACC	-0.0964	0.0253	0.0853	-0.202	-0.0501	0.333	-0.191	-0.0527	-0.0747	-0.0261
CCACATT	0.183	0.00755	-0.462	-2.12	0.22	-0.254	-0.226	0.00575	0.283	-0.00148
GGATAGT	-0.249	0.0828	0.762	1.57	0.116	2.06	-0.79	0.0599	0.115	0.167
TTGGACC	-0.0684	-0.0426	0.34	0.859	0.0281	0.556	0.0453	-0.103	-0.0327	0.0255
TAACCCC	-0.579	-0.182	-1.36	-2.53	-0.127	-0.685	-1.5	-0.185	-0.0775	-0.479
CAATAGT	-3.79	-1.22	-4.15	-3.34	-0.11	-3.73	-4.41	-3.87	-0.616	-3.52
ACTCGCG	0.0101	0.151	0.27	1.75	0.016	1.62	0.122	0.0744	0.077	0.0363
TGCTAAG	0.0406	-0.015	-0.759	-0.495	0.101	-1.05	0.259	0.0887	0.0797	-0.00413

Sequence	uncleaved DNA left (log2) [1]	uncleaved DNA left (log2) [2]	uncleaved DNA left (log2) [3]	uncleaved DNA left (log2) [4]	uncleaved DNA left (log2) [5]	uncleaved DNA left (log2) [6]	uncleaved DNA left (log2) [7]	uncleaved DNA left (log2) [8]	uncleaved DNA left (log2) [9]	uncleaved DNA left (log2) [10]
CTGGAGT	0.045	-0.0228	-0.109	-0.0194	-0.0961	-0.314	0.0617	0.0339	-0.0429	-0.116
CCAATGG	-0.0178	-0.0467	-0.139	-0.0905	0.0256	-0.76	0.0991	0.069	0.0342	-0.113
CGTGCAG	-0.0545	-0.121	-0.794	-0.46	-0.00538	-0.859	0.0707	-0.0495	-0.00631	-0.246
CGGGTTT	-0.053	-0.0641	0.365	0.243	-0.0676	1.24	-0.105	-0.0501	-0.0506	-0.0627
TCCTATA	0.0144	-0.0341	-0.0212	-1.51	-0.0438	-0.51	-0.272	0.0826	-0.0113	-0.0281
GCCTCCC	-0.103	-0.144	0.112	0.255	-0.0335	0.417	-0.144	-0.0836	-0.183	-0.185
TATCGGC	0.0599	-0.0655	0.0484	-0.0165	-0.101	-0.526	-0.0127	0.0546	0.0322	-0.00936
AACATGA	-0.0128	-0.0627	-0.298	-0.406	-0.0797	-0.882	0.0336	-0.0672	-0.0266	-0.0824
GTGACAA	0.0911	0.192	0.73	1.81	0.00552	2.22	0.271	0.191	0.12	0.228
ACCCGCA	-0.03	-0.104	-0.452	-0.663	0.0479	-0.858	0.0741	0.0476	0.0284	-0.0514
TTGAGCG	0.0717	-0.0386	-0.873	-0.278	0.0015	-1.24	0.178	0.0429	-0.011	-0.0909
ATCTTAT	-0.169	-0.153	-0.0478	-0.823	0.0161	-0.523	-2.61	0.126	0.00418	-0.218
AATAAAG	0.0323	-0.0188	-0.781	-0.37	0.0744	-1.2	0.181	0.0478	0.0551	-0.0532
GTATTTA	0.00747	0.0131	0.397	0.749	0.159	1.68	0.00727	0.112	0.0726	0.202
CCAGGAT	0.156	0.124	0.254	1.6	-0.132	1.9	0.0959	0.0924	-0.117	-0.066
GTTCAAG	0.0172	0.0467	-0.0934	-0.129	-0.062	-0.676	0.0993	0.0336	0.087	0.057
GGTCACC	0.12	0.078	0.472	1.14	-0.101	1.77	0.0457	-0.0455	0.106	0.146
CATCAGC	0.0326	0.0728	-0.568	-0.682	0.111	-1.13	0.0801	-0.0056	0.161	-0.056
GATTTAA	0.101	0.0943	0.325	0.75	0.146	1.4	0.00449	0.207	0.161	0.14
TTCGGGT	0.0579	0.011	0.225	0.553	0.107	1.1	0.141	0.0439	0.0326	-0.0927

Sequence	uncleaved DNA left (log2) [1]	uncleaved DNA left (log2) [2]	uncleaved DNA left (log2) [3]	uncleaved DNA left (log2) [4]	uncleaved DNA left (log2) [5]	uncleaved DNA left (log2) [6]	uncleaved DNA left (log2) [7]	uncleaved DNA left (log2) [8]	uncleaved DNA left (log2) [9]	uncleaved DNA left (log2) [10]
GATCACA	-0.15	-0.0504	0.116	-0.965	-0.16	0.724	-0.0904	-0.172	-0.0253	0.0613
TATGCAG	0.0255	-0.0971	-0.682	-0.373	-0.0183	-1.24	0.151	-0.0249	0.131	-0.125
GCTGAGA	-0.0439	0.0654	0.207	0.616	0.0433	0.288	0.115	0.0527	0.0788	0.0873
ATCGAGT	0.0594	-0.0487	-0.133	-0.0801	0.0151	-0.409	-0.105	0.109	-0.121	0.0139
TACTCAT	-2.44	-1.02	-0.771	-2.79	-0.044	-0.341	-3.85	-0.0898	-0.0706	-0.0875
CGATCAA	-0.106	0.0025	0.439	0.815	-0.135	0.792	-0.101	-0.0528	-0.102	0.00871
TGGACCC	0.0732	0.065	0.609	1.5	-0.0848	1.89	0.0447	0.0362	-0.0495	0.0552
CAATGCA	-0.202	0.0152	-1.16	-1.43	0.0501	-1.29	-0.565	-0.102	0.135	-0.0986
TAAAATA	-0.0505	-0.109	-2.96	-2.86	-0.0686	-1.15	-0.194	-0.341	-0.0671	-2
CTATCGT	-0.178	-0.00867	-0.49	-1.07	-0.113	-1.12	-0.269	-0.0306	-0.0565	-0.0237
TTACGGT	0.103	0.0717	0.388	-0.18	0.0177	1.42	-0.029	0.103	0.014	-0.0269
CTGCACG	0.0253	-0.118	-0.971	-0.486	-0.0762	-1.1	0.0924	-0.0425	-0.167	-0.251
CACTGCA	-0.161	-0.0637	-0.683	-1.07	-0.00394	-1.2	-2.15	-0.114	0.0374	-0.195
GCGGTTA	0.149	0.0811	0.344	0.629	0.1	1.29	-0.0202	0.22	0.0547	0.0691
GAAGTGT	0.123	-0.0168	-0.00207	-0.223	0.00647	0.13	0.111	0.0199	-0.0647	0.00912
GGAATTC	0.0446	0.0207	0.626	1.59	-0.0174	1.94	0.084	-0.0285	0.0932	0.122
AATCATG	-0.00717	-0.0117	-0.527	-0.455	-0.103	-0.958	0.0821	0.035	-0.152	-0.115
TGCATAT	-0.0466	0.00742	-0.093	-0.461	-0.141	-0.618	-0.204	-0.181	-0.153	-0.191
AACGGGA	-0.0966	-0.08	0.434	0.735	-0.0016	1.45	0.112	-0.0275	-0.0639	-0.103
GTTCCAT	0.0876	0.178	0.386	1.03	0.012	1.84	0.163	0.134	0.185	0.205

— the supplement of paper PMC7826260
